In PubChem BioAssay AID1745845 (National Center for Advancing Translational Sciences (NCATS), 2022):
The campaign covered roughly 360,000 compounds. About 2,600 (0.72%) were called active. The inconclusive results got no clear call from the source; some entries with a clear call stand among them for comparison. The call rests on the fitted dose curve; in most records, active means well fitted inhibition curve with a large enough effect; inconclusive means small, poorly fitted or top-dose-only effect; inactive means no such curve, though single readings can be large or run the other way. Where the call is inconclusive, the potency comes from a doubtful curve fit. Where a structure was tested more than once in an assay, its records may differ in their call.

Test: Primary qHTS for Inhibitors of ATXN expression; further: nearly all actives have a fitted effect of over 55% in size
Details: HEK-293 ATXN2-luciferase reporter, luminescence, 24 h; activity change, negative = inhibition: at 57 µM (top of the series)
How it was run: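 ATXN2-luciferase reporter cells (luciferase flanked by upstream and downstream ATXN2 gene portions) were treated 24 h at 37 °C with compounds at up to 57 uM. SteadyGlo luminescence gave expression; GF-AFC fluorescence gave viability.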
On the % scale 0 is the no-effect control and ±100 the full control effect; potency means the concentration at half of the fitted maximal effect; tags describe the fitted curve by direction and shape.

Row | Compound | Potency | activity change, negative = inhibition
1 | CCc1ccc(CNC(=O)C2CCCN(c3nnc(C)c4c(C)n(-c5ccccc5)nc34)C2)cc1 (centres undefined) | inconclusive: 28.2 µM [inhibitor, single point] | –
2 | Cc1c(N=C2C=C(Br)C(=O)C(Br)=C2)c(=O)n(-c2ccccc2)n1C | – | inactive: -32.6% [at 11.3 µM]
3 | O[C@H]1C[C@H](c2ccc(Cl)cc2)N(Cc2cccs2)C[C@@H]1n1cc(-c2ccc(F)cc2)nn1 | active: 31.6 µM | –
4 | CC(=O)O[C@@H](C[C@@H](C)C1=C2C[C@H](O)C3[C@@]4(C)CCC(=O)C(C)(C)C4CC[C@]3(C)[C@@]2(C)CC1)[C@H]1OC1(C)C (some centres undefined) | inconclusive: 39.8 µM [inhibitor, single point] | –
5 | Cc1ccc(C(=O)N/N=C/c2nc3ccccc3n2C)cc1 | inconclusive: 28.2 µM [inhibitor, partial curve] | –
6 | CCCCN(C(=O)C1CCC(CNS(=O)(=O)c2cccc3nsnc23)CC1)c1ccccc1 (centres undefined) | inconclusive: 39.8 µM [inhibitor, single point] | –
7 | COc1ccc(C(=O)Oc2c(CN3CCOCC3)cc(Cl)c3cccnc23)cc1OC | inconclusive: 8.91 µM [inhibitor, partial curve, poor fit] | –
8 | O=C(N/N=C/c1c(O)n(Cc2ccccc2)c(=O)c2ccccc12)c1cccnc1 | active: 16.8 µM | –
9 | Cc1ccc(N=c2c([N+](=O)[O-])nn(-c3ccc4c(c3)OCCO4)n2O)cc1F | inconclusive: 2.24 µM [inhibitor, full curve] | –
10 | O=c1cc(N2CCN(c3cccc(Cl)c3)CC2)[nH]c(=O)n1C1CCCCC1 | inconclusive: 0.562 µM [inhibitor, full curve] | –
11 | C=CCN1C=CC(=O)[C@@H](OC(=O)Nc2ccc(Br)cc2)[C@H]1c1ccccc1Br | inconclusive: 28.2 µM [inhibitor, partial curve] | –
12 | CCc1ccccc1N(C)C(=O)C1CCCN(c2ncnc3c2nc2n3CCCCC2)C1 (centres undefined) | – | inactive: -16.8%
13 | COc1cc(NC(=O)c2cc3cc4ccc(C)cc4nc3o2)cc(OC)c1OC | inconclusive: 3.55 µM [inhibitor, partial curve, poor fit] | –
14 | O=C(CSc1nc2ccccc2nc1Cc1ccc(Cl)cc1)N1CCN(c2ccccc2)CC1 | – | inactive: 4.44%
15 | O=C(CSc1nc(-c2cccc(F)c2)[nH]c1-c1ccccc1)Nc1ccc2c(c1)OCO2 | inconclusive: 39.8 µM [inhibitor, single point] | –
16 | O=C(CSc1ccc(-c2ccccn2)nn1)Nc1ccccc1 | inconclusive: 39.8 µM [inhibitor, single point] | –
17 | CCOC(=O)C1CCN(C(=O)CCCN2C(=O)c3ccccc3C2=O)CC1 | inconclusive: 17.8 µM [inhibitor, partial curve, poor fit] | –
18 | Cc1ccc(S(=O)(=O)/N=C(\Sc2ccccc2)c2ccccc2)cc1 | active: 20 µM | –
19 | CC(NC(=O)CSc1nc(C2CC2)n(-c2ccccc2)n1)c1ccco1 (centres undefined) | – | inactive: 4.9%
20 | CCOC(=O)C1Nc2ccc(C(F)(F)F)cc2C2c3ccccc3CC12 (centres undefined) | active: 25.1 µM | –
21 | CC(C)(c1ccccc1)c1ccc(OCC(O)CNC2CCN(Cc3ccccc3)CC2)cc1 (centres undefined) | inconclusive: 33.6 µM [inhibitor, single point] | –
22 | OCCC1CN(Cc2cnc(-c3ccc(Cl)cc3)nc2)CCN1C1CCCC1 (centres undefined) | inconclusive: 39.8 µM [inhibitor, single point] | –

Row | Compound | Potency | activity change, negative = inhibition
23 | CCOC(=O)N1CCC(NS(=O)(=O)c2ccc(C)c(Cl)c2)CC1 | inconclusive: 14.1 µM [inhibitor, partial curve, poor fit] | –
24 | Cc1ccc(S(=O)(=O)N2CCN(C(=O)Cn3c(=O)cnc4ccccc43)CC2)cc1 | – | inactive: -7.3%
25 | COc1cc2nc(SCc3ccc(C)cc3)n3nc(CCn4nc(C)cc4C)nc3c2cc1OC | – | inactive: 4.61%
26 | Cc1ccc(-c2cc(C(=O)N/N=C/c3c(C)nn(C)c3C)c3ccccc3n2)cc1C | – | inactive: 79.2%
27 | COc1cc(/C=C(/C(=O)c2cccs2)c2nc3ccccc3[nH]2)ccc1O | inconclusive: 39.8 µM [inhibitor, single point] | –
28 | CCOc1ccc(CCN2C(=S)N([C@@H](CC(C)C)CN3CCCC3CN3C(=S)NC[C@@H]3Cc3ccc(O)cc3)C[C@@H]2Cc2ccc(O)cc2)cc1 (some centres undefined) | inconclusive: 39.8 µM [inhibitor, single point] | –
29 | COc1ccccc1N1CCN(C(=O)C2CCCN(S(=O)(=O)c3ccc4c(c3)CCCN4C(C)=O)C2)CC1 (centres undefined) | active: 17.8 µM | –
30 | COc1ccc(NC(=O)/C(Cl)=C(/Cl)S(=O)(=O)Cc2ccc(C)cc2)cn1 | active: 7.08 µM | –
31 | COc1ccc2c(c1)C(=O)C(=O)N2 | inconclusive: 8.91 µM [inhibitor, single point] | –
32 | Cc1ccc(NC(=O)c2ccc(NC(=O)CCS(=O)(=O)c3cccs3)cc2)cc1F | inconclusive: 39.8 µM [inhibitor, partial curve, poor fit] | –
33 | CC(=O)Nc1ncc(Cc2cccc(Cl)c2Cl)s1 | – | inactive: -29.4% [at 11.3 µM]
34 | CC(=O)Nc1ccc(S(=O)(=O)N2c3ccc(F)cc3CCC2C)cc1 (centres undefined) | inconclusive: 37.7 µM [inhibitor, single point] | –
35 | O=C(Nc1ccncc1)c1ccc(Cl)c(S(=O)(=O)N2CCc3ccccc32)c1 | inconclusive: 31.6 µM [inhibitor, single point] | –
36 | COC(=O)c1ccc(CSC(=N)N)o1 | inconclusive: 37.7 µM [inhibitor, single point] | –
37 | C/C(=N\NC(=O)c1ccc(O)cc1)c1cccc(NC(=O)c2ccccc2C)c1 | – | inactive: 24.5%
38 | Cc1cccn2c(=O)c3cc(C(=O)NCCc4ccccc4)c(=N)n(Cc4ccco4)c3nc12 | – | inconclusive: -40.6% [inhibitor]
39 | COc1cccc(CNS(=O)(=O)c2ccc3c(c2)CC(C)N3C(=O)C2CC2)c1 (centres undefined) | – | inactive: -18.6%
40 | O=C(NCCSc1c[nH]c2ccccc12)c1ccccc1Cl | – | inactive: -16.6%
41 | CCCOc1ccccc1-n1sc2c(c1=S)-c1cc(OC)cc3c1N(C(=O)C3=O)C2(C)C | inconclusive: 39.8 µM [inhibitor, single point] | –
42 | COc1cc(/C=C(\C#N)C(=O)Nc2ccccc2C(=O)O)cc(Cl)c1OC | inconclusive: 33.6 µM [inhibitor, single point] | –
43 | O=C(NCCCN1CCCCC1)C1CCN(S(=O)(=O)N2CCC3(CC2)OCCO3)CC1 | – | inactive: -2.54%
44 | O=C1CCC[C@@H]2[C@@H](Cc3ccccc3)[C@H](N3CCN(c4ccccc4)CC3)C[C@@H]3CCN1[C@@H]32 | inconclusive: 39.8 µM [inhibitor, single point] | –

Row | Compound | Potency | activity change, negative = inhibition
45 | CC1(O)CC(c2ccc(Cl)cc2)=NN1C(=O)c1ccc([N+](=O)[O-])cc1 (centres undefined) | inconclusive: 17.8 µM [inhibitor, partial curve, poor fit] | –
46 | O=C(CC1C(=O)NCCN1C(=O)Nc1ccc(Cl)cc1)Nc1ccc(F)cc1 (centres undefined) | inconclusive: 17.8 µM [inhibitor, partial curve, poor fit] | –
47 | Cn1ccc2c(N(Cc3ccccc3)Cc3ccccc3)cc3c(c21)C1CCC3C1 (centres undefined) | – | inactive: -12%
48 | CCN(CC)CCn1c2ccccc2c2cnc(N)c(C#N)c21 | active: 14.1 µM | –
49 | Cc1ccc(C(=O)Nc2nncs2)cc1S(=O)(=O)N1CCOCC1 | inconclusive: 39.8 µM [inhibitor, partial curve, poor fit] | –
50 | O=C1CC(Sc2nnc(-c3ccccc3O)o2)C(=O)N1c1ccccc1 (centres undefined) | inconclusive: 39.8 µM [inhibitor, single point] | –
51 | C#CCn1c(O)c(N=NC(=O)C(O)c2ccccc2)c2ccccc21 (centres undefined) | inconclusive: 28.2 µM [inhibitor, single point] | –
52 | CC(=O)Nc1ccccc1OCc1nnc(-c2ccccc2Cl)o1 | – | inactive: 8.95%
53 | COc1ccc(OC)c(NC(=O)CCOc2cccc(C)c2)c1 | inconclusive: 20 µM [inhibitor, partial curve, poor fit] | –
54 | CCn1c(=NC(=O)c2ccc(S(=O)(=O)N3CCOCC3)cc2)sc2cccc(OC)c21 | inconclusive: 12.6 µM [inhibitor, partial curve, poor fit] | –
55 | FC(F)(F)c1ccc(N2CCN(c3cc(-c4ccccc4)nc4ncnn34)CC2)nc1 | inconclusive: 20 µM [inhibitor, partial curve] | –
56 | CCOc1cc(/C=C(/C#N)c2nc3ccccc3[nH]2)ccc1Oc1ccc([N+](=O)[O-])cn1 | inconclusive: 20 µM [inhibitor, partial curve, poor fit] | –
57 | CC(=O)Nc1ccc(Nc2cc(C(C)C)nc3c(-c4ccccc4)c(C)nn23)cc1 | inconclusive: 21.2 µM [inhibitor, partial curve, poor fit] | –
58 | COc1cccc(Nc2nc(N)nc(CCl)n2)c1 | inconclusive: 39.8 µM [inhibitor, single point] | –
59 | CC1=NN(c2ccccc2)C(=O)/C1=C\C=C\c1ccccc1 | inconclusive: 31.6 µM [inhibitor, partial curve, poor fit] | –
60 | CCCCCN(C(=O)CN1CCC(Cc2ccccc2)CC1)c1c(N)n(CCCC)c(=O)[nH]c1=O | – | inactive: -25.4%
61 | Fc1ccccc1/C=N/NC(=S)Nc1ccc(Cl)cc1Cl | – | inactive: -23.2%
62 | Cc1cccc(N2CCN(C(=O)Cn3sc4nc(C)cc(C)c4c3=O)CC2C)c1 (centres undefined) | inconclusive: 37.7 µM [inhibitor, single point] | –
63 | Nc1nc(NCc2ccco2)nc(N2CCOCC2)c1[N+](=O)[O-] | – | inactive: 7.28%
64 | COc1ccc(C(C(=O)NC2CCCCC2)N(C(=O)CCl)c2ccc(C)cc2)cc1 (centres undefined) | inconclusive: 10 µM [inhibitor, partial curve, poor fit] | –
